This note sets out measurements from PMC12820563.

The list shows a part of the results. The list includes weakly bound sequences.

For the assay, the target named is T1, MBP-FoxP3dN (UniProt Q99JB6).
T1 sequence: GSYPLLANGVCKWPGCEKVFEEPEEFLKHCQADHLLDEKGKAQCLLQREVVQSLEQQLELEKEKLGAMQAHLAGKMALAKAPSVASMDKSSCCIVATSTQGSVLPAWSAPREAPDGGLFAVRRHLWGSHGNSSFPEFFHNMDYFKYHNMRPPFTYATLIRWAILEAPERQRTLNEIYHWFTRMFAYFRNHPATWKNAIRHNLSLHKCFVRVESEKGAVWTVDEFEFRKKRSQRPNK
In words: PD-seq (MBP pull-down with sequencing). Conditions: 20 mM Tris-HCl pH 7.5, 100 mM NaCl, 1.5 mM MgCl2, 0.4 uM protein, 0.1 uM dsDNA library, 30 min, room temperature, amylose pull-down; high values mean tight binding; double strand, one strand shown.
For “GATGATTGTTCTCCCAGCTGATGAATTAGTAACTTCGAGTAAACAAATTTTCCTAATCTTTCTGTTCAAGCGCCATCTAC”, the binding signal (RPM ratio (pull-down/input)) was determined as 0.664.

Regarding “GATGATTGTTCTCCCAGCTGATGAATTGTCTTGGTCGAGTAAACAAATTTTCCTAATCTTTCTGTTCAAGCGCCATCTAC”, the binding signal (RPM ratio (pull-down/input)) came to 0.404.

On to “GATGATTGTTCTCCCAGCTGATGAATTAGATCGTTCGAGTAAACAAATTTTCCTAATCTTTCTGTTCAAGCGCCATCTAC”, for which the binding signal (RPM ratio (pull-down/input)) was found to be 0.405.

In the case of “GATGATTGTTCTCCCAGCTGATGAATTGGTGCTGTCGAGTAAACAAATTTTCCTAATCTTTCTGTTCAAGCGCCATCTAC”, the binding signal (RPM ratio (pull-down/input)) was found to be 0.636.

As for “GATGATTGTTCTCCCAGCTGATGAATTTGAGAGTTCGAGTAAACAAATTTTCCTAATCTTTCTGTTCAAGCGCCATCTAC”, the binding signal (RPM ratio (pull-down/input)) amounted to 0.59.

Consider “GATGATTGTTCTCCCAGCTGATGAATTGCCGGGCTCGAGTAAACAAATTTTCCTAATCTTTCTGTTCAAGCGCCATCTAC”, for which the binding signal (RPM ratio (pull-down/input)) came to 0.363.

Regarding “GATGATTGTTCTCCCAGCTGATGAATTAGACCTCTCGAGTAAACAAATTTTCCTAATCTTTCTGTTCAAGCGCCATCTAC”, the binding signal (RPM ratio (pull-down/input)) came to 0.389.

For “GATGATTGTTCTCCCAGCTGATGAATTATACCCGTCGAGTAAACAAATTTTCCTAATCTTTCTGTTCAAGCGCCATCTAC”, the binding signal (RPM ratio (pull-down/input)) came out at 0.302.

As for “GATGATTGTTCTCCCAGCTGATGAATTGCAGCCATCGAGTAAACAAATTTTCCTAATCTTTCTGTTCAAGCGCCATCTAC”, the binding signal (RPM ratio (pull-down/input)) is 1.97.

As to “GATGATTGTTCTCCCAGCTGATGAATTCTATACATCGAGTAAACAAATTTTCCTAATCTTTCTGTTCAAGCGCCATCTAC”, the binding signal (RPM ratio (pull-down/input)) came out at 0.559.

As to “GATGATTGTTCTCCCAGCTGATGAATTCTCGTCCTCGAGTAAACAAATTTTCCTAATCTTTCTGTTCAAGCGCCATCTAC”, the binding signal (RPM ratio (pull-down/input)) was 0.286.

In the case of “GATGATTGTTCTCCCAGCTGATGAATTTAACCTATCGAGTAAACAAATTTTCCTAATCTTTCTGTTCAAGCGCCATCTAC”, the binding signal (RPM ratio (pull-down/input)) is 0.345.

As to “GATGATTGTTCTCCCAGCTGATGAATTGAGAACCTCGAGTAAACAAATTTTCCTAATCTTTCTGTTCAAGCGCCATCTAC”, the binding signal (RPM ratio (pull-down/input)) amounted to 0.261.

As for “GATGATTGTTCTCCCAGCTGATGAATTATTATGATCGAGTAAACAAATTTTCCTAATCTTTCTGTTCAAGCGCCATCTAC”, the binding signal (RPM ratio (pull-down/input)) was 1.24.

Consider “GATGATTGTTCTCCCAGCTGATGAATTGGGTACCTCGAGTAAACAAATTTTCCTAATCTTTCTGTTCAAGCGCCATCTAC”, for which the binding signal (RPM ratio (pull-down/input)) was 0.484.

On to “GATGATTGTTCTCCCAGCTGATGAATTGTCGGATTCGAGTAAACAAATTTTCCTAATCTTTCTGTTCAAGCGCCATCTAC”, for which the binding signal (RPM ratio (pull-down/input)) is 0.308.

Regarding “GATGATTGTTCTCCCAGCTGATGAATTGTTAGTTTCGAGTAAACAAATTTTCCTAATCTTTCTGTTCAAGCGCCATCTAC”, the binding signal (RPM ratio (pull-down/input)) came to 4.23.

Consider “GATGATTGTTCTCCCAGCTGATGAATTCGTGTGCTCGAGTAAACAAATTTTCCTAATCTTTCTGTTCAAGCGCCATCTAC”, for which the binding signal (RPM ratio (pull-down/input)) stood at 1.35.

For the sequence “GATGATTGTTCTCCCAGCTGATGAATTTCGCCTATCGAGTAAACAAATTTTCCTAATCTTTCTGTTCAAGCGCCATCTAC”, the binding signal (RPM ratio (pull-down/input)) turned out to be 2.53.

On to “GATGATTGTTCTCCCAGCTGATGAATTTCAATAGTCGAGTAAACAAATTTTCCTAATCTTTCTGTTCAAGCGCCATCTAC”, for which the binding signal (RPM ratio (pull-down/input)) is 0.581.

On to “GATGATTGTTCTCCCAGCTGATGAATTCCAAACCTCGAGTAAACAAATTTTCCTAATCTTTCTGTTCAAGCGCCATCTAC”, for which the binding signal (RPM ratio (pull-down/input)) came out at 0.274.

Consider “GATGATTGTTCTCCCAGCTGATGAATTAGGCAAATCGAGTAAACAAATTTTCCTAATCTTTCTGTTCAAGCGCCATCTAC”, for which the binding signal (RPM ratio (pull-down/input)) was 0.601.

In the case of “GATGATTGTTCTCCCAGCTGATGAATTGATCGGCTCGAGTAAACAAATTTTCCTAATCTTTCTGTTCAAGCGCCATCTAC”, the binding signal (RPM ratio (pull-down/input)) was found to be 0.212.

Consider “GATGATTGTTCTCCCAGCTGATGAATTATGTAAATCGAGTAAACAAATTTTCCTAATCTTTCTGTTCAAGCGCCATCTAC”, for which the binding signal (RPM ratio (pull-down/input)) came to 0.88.

Take “GATGATTGTTCTCCCAGCTGATGAATTAGACAACTCGAGTAAACAAATTTTCCTAATCTTTCTGTTCAAGCGCCATCTAC”: the binding signal (RPM ratio (pull-down/input)) came out at 0.585.

Regarding “GATGATTGTTCTCCCAGCTGATGAATTGCAACGGTCGAGTAAACAAATTTTCCTAATCTTTCTGTTCAAGCGCCATCTAC”, the binding signal (RPM ratio (pull-down/input)) turned out to be 0.994.

For “GATGATTGTTCTCCCAGCTGATGAATTTGCCCAATCGAGTAAACAAATTTTCCTAATCTTTCTGTTCAAGCGCCATCTAC”, the binding signal (RPM ratio (pull-down/input)) was 0.469.

As for “GATGATTGTTCTCCCAGCTGATGAATTGACCAATTCGAGTAAACAAATTTTCCTAATCTTTCTGTTCAAGCGCCATCTAC”, the binding signal (RPM ratio (pull-down/input)) was 0.351.

For “GATGATTGTTCTCCCAGCTGATGAATTTTATAAGTCGAGTAAACAAATTTTCCTAATCTTTCTGTTCAAGCGCCATCTAC”, the binding signal (RPM ratio (pull-down/input)) is 0.377.

“GATGATTGTTCTCCCAGCTGATGAATTAAGTTCTTCGAGTAAACAAATTTTCCTAATCTTTCTGTTCAAGCGCCATCTAC”: the binding signal (RPM ratio (pull-down/input)) was determined as 0.522.

Consider “GATGATTGTTCTCCCAGCTGATGAATTTTCCTGGTCGAGTAAACAAATTTTCCTAATCTTTCTGTTCAAGCGCCATCTAC”, for which the binding signal (RPM ratio (pull-down/input)) came out at 0.168.

In the case of “GATGATTGTTCTCCCAGCTGATGAATTGCTATGCTCGAGTAAACAAATTTTCCTAATCTTTCTGTTCAAGCGCCATCTAC”, the binding signal (RPM ratio (pull-down/input)) was found to be 0.857.

Regarding “GATGATTGTTCTCCCAGCTGATGAATTTTAAATGTCGAGTAAACAAATTTTCCTAATCTTTCTGTTCAAGCGCCATCTAC”, the binding signal (RPM ratio (pull-down/input)) was 0.398.

For “GATGATTGTTCTCCCAGCTGATGAATTTTTCCAGTCGAGTAAACAAATTTTCCTAATCTTTCTGTTCAAGCGCCATCTAC”, the binding signal (RPM ratio (pull-down/input)) amounted to 0.201.

Take “GATGATTGTTCTCCCAGCTGATGAATTGCATTAGTCGAGTAAACAAATTTTCCTAATCTTTCTGTTCAAGCGCCATCTAC”: the binding signal (RPM ratio (pull-down/input)) came out at 2.07.

“GATGATTGTTCTCCCAGCTGATGAATTCGCTGCGTCGAGTAAACAAATTTTCCTAATCTTTCTGTTCAAGCGCCATCTAC”: the binding signal (RPM ratio (pull-down/input)) was 0.611.

Take “GATGATTGTTCTCCCAGCTGATGAATTAGGACAATCGAGTAAACAAATTTTCCTAATCTTTCTGTTCAAGCGCCATCTAC”: the binding signal (RPM ratio (pull-down/input)) worked out at 0.401.

Consider “GATGATTGTTCTCCCAGCTGATGAATTACCCATTTCGAGTAAACAAATTTTCCTAATCTTTCTGTTCAAGCGCCATCTAC”, for which the binding signal (RPM ratio (pull-down/input)) came out at 0.338.

For “GATGATTGTTCTCCCAGCTGATGAATTATCGTTTTCGAGTAAACAAATTTTCCTAATCTTTCTGTTCAAGCGCCATCTAC”, the binding signal (RPM ratio (pull-down/input)) amounted to 0.703.

For “GATGATTGTTCTCCCAGCTGATGAATTGCCTGGCTCGAGTAAACAAATTTTCCTAATCTTTCTGTTCAAGCGCCATCTAC”, the binding signal (RPM ratio (pull-down/input)) turned out to be 0.584.
